# Reference: a collection of fitness landscapes (doi:10.1038/s41467-024-54723-y)
# Over roughly 18,000 sequences, “TetR repression strength (sort-seq, GFP reporter)” has its median near 0.23; the highest 2% begin near 0.68. The list shows a part of the results.
# Target: TetR (class B, Tn10) (UniProt P04483)
# Assay: TetR repression strength (sort-seq, GFP reporter) (relative to tetO2 = 1); higher = stronger repression
# Conditions: E. coli
# Outline: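 E. coli SIG10-MAX carried a low-copy plasmid library with eight randomized operator positions between a constitutive promoter and sfGFP, with TetR constitutively expressed. Cells grew 5 h at 37 °C in LB with 50 µg/mL chloramphenicol, then 10^6 cells were FACS-sorted into 13 fluorescence bins, each Illumina-sequenced. Repression strength is the top bin index plus one minus the read-weighted mean bin, divided by the wild-type operator value. Three independent transformations; variants with ≥30 reads in all replicates and CV ≤0.5 were averaged.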
# UniProt P04483, sequence (P04483 whole entry): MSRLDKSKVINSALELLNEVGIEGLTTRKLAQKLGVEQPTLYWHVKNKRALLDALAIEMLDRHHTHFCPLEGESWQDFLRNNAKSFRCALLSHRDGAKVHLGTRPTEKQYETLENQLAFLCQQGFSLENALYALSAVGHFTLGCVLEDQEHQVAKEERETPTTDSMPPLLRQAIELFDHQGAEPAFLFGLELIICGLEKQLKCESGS
row,Sequence,TetR repression strength
1,TCCCGTATAGTGCAGGAGA,0.238
2,TCCCCACGAGTGACGGAGA,0.118
3,TCCCCTGTAGTGACAGAGA,0.194
4,TCCCTCCAAGTGTTCGAGA,0.392
5,TCCCTGACAGTTATCGAGA,0.253
6,TCCCGACCAGTACTAGAGA,0.283
7,TCCCCGGGAGTCGGCGAGA,0.171
8,TCCCTGAAAGTGGTCGAGA,0.285
9,TCCCACAGAGTAAGAGAGA,0.488
10,TCCCCTCCAGTCGATGAGA,0.44
11,TCCCGTCTAGTCTCTGAGA,0.295
12,TCCCGCTAAGTGATTGAGA,0.473
13,TCCCAGTCAGTTCAGGAGA,0.096
14,TCCCGTCGAGTGAACGAGA,0.242
15,TCCCGTCAAGTGCTTGAGA,0.848
16,TCCCTTGGAGTGATAGAGA,0.384
17,TCCCTTGCAGTAGTCGAGA,0.214
18,TCCCGAGCAGTCGCGGAGA,0.156
19,TCCCATGGAGTGCGTGAGA,0.262
20,TCCCTCACAGTGGACGAGA,0.155
21,TCCCAAACAGTGTGGGAGA,0.268
22,TCCCGTCCAGTCCCCGAGA,0.327
23,TCCCGGAAAGTGTAGGAGA,0.289
24,TCCCTATGAGTTGGAGAGA,0.241
25,TCCCTTCTAGTCTTTGAGA,0.693
26,TCCCATGAAGTCATGGAGA,0.25

row,Sequence,TetR repression strength
1,TCCCATAGAGTTGTGGAGA,0.184
2,TCCCGTGCAGTCCTGGAGA,0.092
3,TCCCACGGAGTAAACGAGA,0.288
4,TCCCAAGGAGTGGGGGAGA,0.345
5,TCCCATCTAGTGATCGAGA,0.412
6,TCCCCAGCAGTGGGTGAGA,0.118
7,TCCCTGCGAGTGGATGAGA,0.397
8,TCCCCGGTAGTCTAGGAGA,0.227
9,TCCCTTTAAGTCGAAGAGA,0.123
10,TCCCTGCAAGTCAACGAGA,0.207
11,TCCCTATTAGTGCGAGAGA,0.198
12,TCCCGATCAGTTCTGGAGA,0.36
13,TCCCCGGGAGTCTCTGAGA,0.0671
14,TCCCATGGAGTAGCAGAGA,0.386
15,TCCCAGTAAGTCGCAGAGA,0.404
16,TCCCTAATAGTCCTCGAGA,0.385
17,TCCCAGGGAGTCTACGAGA,0.095
18,TCCCGCTAAGTACGAGAGA,0.156
19,TCCCAGGAAGTTCGGGAGA,0.45
20,TCCCGGGTAGTTCTAGAGA,0.672
21,TCCCTCTTAGTGTTGGAGA,0.224
22,TCCCTTCAAGTAACGGAGA,0.352
23,TCCCTCACAGTTGGCGAGA,0.207
24,TCCCTGTGAGTCGAGGAGA,0.141
25,TCCCAAGAAGTAGTTGAGA,0.207
26,TCCCGACCAGTGTACGAGA,0.178

row,Sequence,TetR repression strength
1,TCCCCTCAAGTCAAGGAGA,0.305
2,TCCCATCCAGTAAACGAGA,0.547
3,TCCCTGGCAGTGATTGAGA,0.47
4,TCCCAGTCAGTAACCGAGA,0.411
5,TCCCTGCCAGTACACGAGA,0.217
6,TCCCATCTAGTAGTGGAGA,0.0175
7,TCCCCTGGAGTATTGGAGA,0.289
8,TCCCTATTAGTGATAGAGA,0.878
9,TCCCCATGAGTGCTTGAGA,0.341
10,TCCCCATGAGTGGTAGAGA,0.211
11,TCCCAAACAGTTTAAGAGA,0.619
12,TCCCCGTTAGTCAGTGAGA,0.186
13,TCCCCTCGAGTGAGGGAGA,0.26
14,TCCCCCGGAGTTGTGGAGA,0.149
15,TCCCCTTGAGTAGGAGAGA,0.415
16,TCCCATAGAGTGTTAGAGA,0.228
17,TCCCACTTAGTGTAAGAGA,0.351
18,TCCCAACTAGTCGAAGAGA,0.267
19,TCCCATTAAGTGGGTGAGA,0.178
20,TCCCGATGAGTTTCAGAGA,0.207
21,TCCCGCCAAGTACGAGAGA,0.207
22,TCCCGTCGAGTGGGAGAGA,0.494
23,TCCCTGACAGTGTGGGAGA,0.22
24,TCCCCGGTAGTCGTGGAGA,0.207
25,TCCCAGGGAGTACGCGAGA,0.352
26,TCCCGGCGAGTACAAGAGA,0.358

row,Sequence,TetR repression strength
1,TCCCTAGGAGTGCTGGAGA,0.382
2,TCCCTCTTAGTAGGGGAGA,0.142
3,TCCCTACTAGTGAAGGAGA,0.242
4,TCCCTGGGAGTTGAGGAGA,0.18
5,TCCCACCAAGTAGGAGAGA,0.285
6,TCCCTTAAAGTTTAGGAGA,0.12
7,TCCCGACCAGTGGCGGAGA,0.195
8,TCCCGCTCAGTCGTTGAGA,0.48
9,TCCCTAGCAGTGGGCGAGA,0.213
10,TCCCTCCGAGTGGATGAGA,0.142
11,TCCCGGCCAGTGCCGGAGA,0.246
12,TCCCCTTTAGTGGGCGAGA,0.115
13,TCCCGCATAGTTGAGGAGA,0.199
14,TCCCCACCAGTATCAGAGA,0.697
15,TCCCGGAGAGTTGTGGAGA,0.42
16,TCCCTGCAAGTGCCGGAGA,0.0686
17,TCCCTGACAGTGAGAGAGA,0.216
18,TCCCGTAGAGTCCGCGAGA,0.173
19,TCCCCGTAAGTTAACGAGA,0.379
20,TCCCATAGAGTCCAGGAGA,0.232
21,TCCCTGTTAGTGACGGAGA,0.268
22,TCCCCAACAGTTTCAGAGA,0.338
23,TCCCAACCAGTCTCAGAGA,0.431
24,TCCCTCGGAGTGGCGGAGA,0.398
25,TCCCGACGAGTTTTAGAGA,0.281
26,TCCCGGCTAGTAAGAGAGA,0.0973

row,Sequence,TetR repression strength
1,TCCCTTCTAGTCTGCGAGA,0.577
2,TCCCTGGGAGTGACTGAGA,0.286
3,TCCCTAAGAGTTTACGAGA,0.0764
4,TCCCTATGAGTCGCGGAGA,0.432
5,TCCCTTTCAGTCCATGAGA,0.41
6,TCCCGGATAGTTCCTGAGA,0.208
7,TCCCCTCTAGTTTTGGAGA,0.41
8,TCCCTCTCAGTGTTAGAGA,0.465
9,TCCCCTTAAGTGACTGAGA,0.343
10,TCCCTGATAGTGTATGAGA,0.21
11,TCCCCCATAGTCCGAGAGA,0.427
12,TCCCCACGAGTCCTTGAGA,0.459
13,TCCCGATAAGTGGAAGAGA,0.327
14,TCCCTCGCAGTGAGGGAGA,0.579
15,TCCCATGGAGTGTTAGAGA,0.246
16,TCCCACGTAGTGGTGGAGA,0.158
17,TCCCACAGAGTAATGGAGA,0.108
18,TCCCATTGAGTCCCGGAGA,0.0115
19,TCCCCTTGAGTAGTAGAGA,0.196
20,TCCCTGGTAGTTTCAGAGA,0.213
21,TCCCTGGCAGTAATGGAGA,0.404
22,TCCCGCGGAGTCCTTGAGA,0.26
23,TCCCTCGGAGTCGTAGAGA,0.287
24,TCCCACAGAGTCAGGGAGA,0.271
25,TCCCCGCGAGTAGTAGAGA,0.314
26,TCCCGGTGAGTAGAGGAGA,0.407

row,Sequence,TetR repression strength
1,TCCCCATAAGTTACGGAGA,0.131
2,TCCCGGAGAGTTATCGAGA,0.316
3,TCCCGAAAAGTGACGGAGA,0.109
4,TCCCGTTAAGTGTGAGAGA,0.179
5,TCCCGGTAAGTCCCTGAGA,0.413
6,TCCCCTTGAGTGGACGAGA,0.325
7,TCCCCGGTAGTACCCGAGA,0.0846
8,TCCCTGGGAGTAGTAGAGA,0.26
9,TCCCGGGTAGTACACGAGA,0.445
10,TCCCTCAAAGTGTTGGAGA,0.237
11,TCCCCGACAGTTGGAGAGA,0.223
12,TCCCGTGGAGTCGTAGAGA,0.23
13,TCCCGTGAAGTACGGGAGA,0.43
14,TCCCGTTGAGTGATAGAGA,0.558
15,TCCCGCAGAGTTAATGAGA,0.239
16,TCCCGGGCAGTAAGAGAGA,0.22
17,TCCCGCGAAGTGTAAGAGA,0.138
18,TCCCTGTAAGTATGCGAGA,0.0714
19,TCCCATTTAGTTGGTGAGA,0.251
20,TCCCAGGTAGTAACAGAGA,0.376
21,TCCCGGGTAGTTGACGAGA,0.0605
22,TCCCATAAAGTTCTCGAGA,0.361
23,TCCCCTAGAGTAGACGAGA,0.238
24,TCCCTGCAAGTATGGGAGA,0.328
25,TCCCGATGAGTGGTGGAGA,0.133
26,TCCCTACGAGTTGTGGAGA,0.0924

row,Sequence,TetR repression strength
1,TCCCACTCAGTGTTGGAGA,0.0488
2,TCCCCAGGAGTTACCGAGA,0.0401
3,TCCCTTCTAGTTTATGAGA,0.524
4,TCCCATGCAGTGAGTGAGA,0.0957
5,TCCCGAACAGTCGAGGAGA,0.185
6,TCCCTATTAGTTTGTGAGA,0.264
7,TCCCGGTAAGTGGAAGAGA,0.376
8,TCCCGCGAAGTATATGAGA,0.357
9,TCCCCATTAGTCGCAGAGA,0.366
10,TCCCGTGAAGTATAGGAGA,0.142
11,TCCCGGGAAGTCGACGAGA,0.0734
12,TCCCGAAGAGTTATTGAGA,0.259
13,TCCCCATTAGTCTCCGAGA,0.513
14,TCCCATTTAGTAGGTGAGA,0.107
15,TCCCGCTAAGTTATCGAGA,0.0361
16,TCCCTTATAGTGGCAGAGA,0.0985
17,TCCCAGATAGTTTGAGAGA,0.28
18,TCCCTCACAGTCTCCGAGA,0.355
19,TCCCCCGAAGTATTCGAGA,0.437
20,TCCCGAACAGTTAACGAGA,0.046
21,TCCCGTTGAGTACGTGAGA,0.314
22,TCCCAGGTAGTTGGTGAGA,0.168
23,TCCCTTTGAGTGTAAGAGA,0.198
24,TCCCTTTGAGTTCTAGAGA,0.123
25,TCCCCTTTAGTTAGAGAGA,0.175
26,TCCCAGTGAGTGAGGGAGA,0.138

row,Sequence,TetR repression strength
1,TCCCATTGAGTATATGAGA,0.292
2,TCCCTTCGAGTGGAAGAGA,0.264
3,TCCCTGCAAGTTGGGGAGA,0.181
4,TCCCGTAAAGTGATAGAGA,0.438
5,TCCCCCGGAGTCGGTGAGA,0.0852
6,TCCCACAAAGTCCTCGAGA,0.402
7,TCCCTTAGAGTAGGCGAGA,0.0259
8,TCCCAGCGAGTAGAAGAGA,0.334
9,TCCCGCGGAGTGCTGGAGA,0.201
10,TCCCTTTAAGTTCTCGAGA,0.271
11,TCCCAACCAGTTGTAGAGA,0.229
12,TCCCGGTGAGTATCAGAGA,0.188
13,TCCCGACCAGTCGGTGAGA,0.154
14,TCCCGAGCAGTACCCGAGA,0.14
15,TCCCTCACAGTTCGAGAGA,0.207
16,TCCCAACCAGTACGTGAGA,0.207
17,TCCCGGACAGTGATTGAGA,0.254
18,TCCCTAAGAGTGTCTGAGA,0.267
19,TCCCCATTAGTTGCAGAGA,0.273
20,TCCCGATCAGTTGTCGAGA,0.279
21,TCCCTGCGAGTAGTGGAGA,0.274
22,TCCCAGAAAGTGTGAGAGA,0.472
